The other results are listed elsewhere or left out.

This experiment concerns S. aureus RN4220. In words: growth inhibition call (relative growth <= 0.2). Conditions: 50 µM.
With `O=C(C[C@H]1C[C@@H]2c3cc(NS(=O)(=O)c4ccc(F)cc4)ccc3O[C@@H]2[C@H](CO)O1)NCc1cccc(F)c1`, the growth inhibition call is “inactive”.
`C[C@H]1CN([C@@H](C)CO)C(=O)c2cc(-c3ccc(C#N)cc3)cnc2O[C@@H]1CN(C)C(=O)Nc1ccc(C(F)(F)F)cc1`: the growth inhibition call was “inactive”.
`C[C@@H]1CN([C@@H](C)CO)C(=O)c2cc(NS(=O)(=O)c3ccccc3)ccc2O[C@@H](C)CCCCO[C@@H]1CN(C)C(=O)c1ccccc1`: the growth inhibition call is “inactive”.
Then `C[C@@H]1CN([C@H](C)CO)C(=O)c2cc(NS(=O)(=O)c3cn(C)cn3)ccc2O[C@H]1CN(C)Cc1ccncc1`, with “inactive”; and `C[C@@H]1CN([C@H](C)CO)C(=O)c2cccc(NS(=O)(=O)c3cn(C)cn3)c2O[C@@H]1CN(C)Cc1ccc(C(=O)Nc2ccccc2N)cc1`, with “inactive”.
Turning to `Cc1noc(C)c1NC(=O)Nc1ccc2c(c1)C(=O)N([C@@H](C)CO)C[C@@H](C)[C@H](CN(C)C(=O)Nc1ccc3c(c1)OCO3)OCCCC[C@@H](C)O2`, the growth inhibition call is “inactive”.
Take `C[C@@H]1CN([C@@H](C)CO)C(=O)c2cc(NS(C)(=O)=O)ccc2O[C@@H]1CN(C)S(C)(=O)=O`: the growth inhibition call was “inactive”.
In the case of `CN1C(=O)c2cc(NS(=O)(=O)c3ccc(F)cc3)ccc2OC[C@H]2O[C@@H](CC(=O)Nc3cccc4ccccc34)CC[C@@H]21` it was “inactive”; in that of `CCOCCCNc1nc2c([nH]1)c(=O)n(C)c(=O)n2C`, “inactive”.
For `Cc1noc(C)c1S(=O)(=O)N(C)C[C@@H]1Oc2ccc(NC(=O)C3CCCCC3)cc2CC(=O)N([C@@H](C)CO)C[C@@H]1C`, the growth inhibition call is “inactive”.
`C[C@@H]1CN([C@@H](C)CO)C(=O)c2cc(C#CC3(O)CCCC3)cnc2O[C@H]1CN(C)C(=O)Cc1cccnc1`: the growth inhibition call was “inactive”.
In the case of `C[C@@H]1CN([C@@H](C)CO)C(=O)c2cc(N(C)C)ccc2O[C@@H](C)CCCCO[C@@H]1CN(C)C(=O)Nc1ccc(C(F)(F)F)cc1` it was “inactive”; in that of `CCCNC(=O)Nc1ccc2c(c1)OC[C@H](C)N(C(=O)C1CCOCC1)C[C@@H](C)[C@@H](OC)CN(C)C2=O`, “inactive”.
With `C[C@H](CO)N1C[C@H](C)[C@H](CN(C)C(=O)Cc2ccccn2)Oc2cc(-c3ccc(C(=O)N(C)C)cc3)ccc2S1(=O)=O`, the growth inhibition call is “inactive”.
Regarding `O=C(C[C@H]1CC[C@@H]2[C@H](COC[C@@H](O)CN2C(=O)c2ccccc2F)O1)N1CCN(c2ccccc2)CC1`, the growth inhibition call is “inactive”.
In the case of `C[C@H](CO)N1C[C@H](C)[C@H](CN(C)S(=O)(=O)c2cccs2)Oc2c(NS(=O)(=O)c3ccc(F)cc3)cccc2C1=O` it was “inactive”.
In the case of `CC(NC(CCc1ccccc1)C(=O)O)C(=O)N1Cc2ccccc2CC1C(=O)O` (stereo not given) it was “inactive”; in that of `O=C(Nc1ccc(-c2nc3ccc(NC(=O)c4ccc(NC(=O)c5cccc6ccccc56)cc4)cc3[nH]2)cc1)c1ccc(NC(=O)c2cccc3ccccc23)cc1`, “inactive”; in that of `O=C1CSC(/N=C/c2ccccc2O)=NN1`, “inactive”.
Turning to `O=C(C[C@H]1C=C[C@H](NS(=O)(=O)c2ccc(F)cc2)[C@@H](CO)O1)NCCN1CCCCC1`, the growth inhibition call was “inactive”.
In the case of `Cc1cc(C(=O)Nc2cccc3c2O[C@@H](CN(C)Cc2ccc(C(=O)O)cc2)[C@@H](C)CN([C@H](C)CO)C3=O)n(C)n1` it was “inactive”.
Then `C[C@@H]1CCCCO[C@@H](CN(C)Cc2ccc(C(F)(F)F)cc2)[C@H](C)CN([C@@H](C)CO)C(=O)c2cc(NC(=O)Nc3ccc(F)cc3)ccc2O1`, with “inactive”; and `O=C(O)c1ccc2ccccc2c1`, with “inactive”.
In the case of `Cc1ccc(S(=O)(=O)Nc2ccc3c(c2)C(=O)N([C@@H](C)CO)C[C@@H](C)[C@@H](CN(C)C(=O)NC(C)C)O3)cc1` it was “inactive”; in that of `C[C@@H]1CN([C@H](C)CO)C(=O)c2cccc(NS(C)(=O)=O)c2O[C@H]1CN(C)Cc1ccc(C(F)(F)F)cc1`, “inactive”.

(Values after the antibiotic and cytotoxicity screens of Wong et al. (2023).)
